# “And” between values parts separate entries of the source, which are not always exact repeats. Equal entries are not always repeated. The full ranking holds about 5,300 compounds; the median of “PER2::LUC luminescence relative to vehicle control” is about 0.96, and the highest 2% start at about 1.3. Some of the results follow.
# Tested on: mPer2Luc MEF
# Assay: PER2::LUC luminescence relative to vehicle control (fold of vehicle); higher = higher PER2::LUC reporter signal
# Conditions: 10 µM
# Method in brief: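 Each value gives PER2::LUC luminescence as fold of vehicle control, measured with the ONE-Glo luciferase assay system in mouse embryonic fibroblasts carrying the mPer2Luc reporter. Cells grown in DMEM with 10% FBS at 37 °C and 5% CO2 were seeded at ~3000 per well in 384-well plates. Library compounds were added at 10 μM 48 h later, and readings were taken 24 h and 30 h after treatment.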
Structure (SMILES),PER2::LUC luminescence (time after treatment 24 h),PER2::LUC luminescence (time after treatment 30 h)
O=C1NCC2(CCN(CCc3ccccc3)CC2)O1,0.308,0.544
Clc1ccc2c(c1)CCc1cccnc1C2=C1CCNCC1,0.761 and 0.708 and 0.621,0.76 and 0.721 and 0.57
Cl.N[C@@H](CCC(=O)O)C(=O)O,0.933,0.703
COc1ccc([C@@H]2CC(=O)c3c(O)cc(OC4O[C@H](CO[C@H]5O[C@@H](C)[C@@H](O)[C@@H](O)[C@H]5O)[C@H](O)[C@H](O)[C@H]4O)cc3O2)cc1O (stereo not given in full),1.02,1.03
CC(=O)O[C@@H]1C[C@H]2C(C)(C)C(=O)C=C[C@]2(C)[C@H]2CC[C@@]3(C)[C@H](c4ccoc4)OC(=O)[C@H]4O[C@]43[C@@]21C,0.515,0.932
O=C(O)CCc1ccc(NCc2cccc(Oc3ccccc3)c2)cc1,1.24,1.29
Cc1[nH]cnc1CN1CCc2c(c3ccccc3n2C)C1=O,0.875,0.768
O=C1NC(=O)c2cc(Nc3ccccc3)c(Nc3ccccc3)cc21,1,0.781
CN(C)Cc1nc(-c2cn(C)c3ccccc23)no1,0.847,0.949
CC[C@H](C)[C@H]1O[C@]2(C=C[C@@H]1C)C[C@@H]1C[C@@H](C/C=C(\C)[C@@H](O[C@H]3C[C@H](OC)[C@@H](O[C@H]4C[C@H](OC)[C@@H](O)[C@H](C)O4)[C@H](C)O3)[C@@H](C)/C=C/C=C3\CO[C@@H]4[C@H](OC)C(C)=C[C@@H](C(=O)O1)[C@]34O)O2,0.767,0.843
COc1cc(C(C)C)c(Oc2cnc(N)nc2N)cc1I,1.06,1.05
Cc1cc2nc3c(=O)[nH]c(=O)nc-3n(C[C@H](O)[C@H](O)[C@H](O)CO)c2cc1C,1.08,1
CCCOc1ccc2[nH]c(NC(=O)OC)nc2c1,0.469,0.639
COc1cn(-c2ccc(-n3cccn3)cc2F)nc(-c2ccnn2-c2ccccc2)c1=O,0.925,0.973
Nc1ncnc2c1ncn2[C@@H]1O[C@H](CO)[C@@H](O)[C@@H]1O,0.541,0.839
CC1CCN(CC[C@H]2CCCN2S(=O)(=O)c2cccc(O)c2)CC1,1.04,0.906
C[C@H]1C[C@H]2[C@@H]3CCC4=CC(=O)C=C[C@]4(C)[C@@]3(F)[C@@H](O)C[C@]2(C)[C@@]1(O)C(=O)COP(=O)(O)O,0.673,0.992
CCCCC(CC)COC(=O)CC(C(=O)OCC(CC)CCCC)S(=O)(=O)O (stereo not given),0.908,1.06
CC(C)C[C@H](NC(=O)[C@H](Cc1ccccc1)NC(=O)CNC(=O)CNC(=O)[C@@H](N)Cc1ccc(O)cc1)C(=O)N[C@@H](CCCNC(=N)N)C(=O)N[C@@H](CCCNC(=N)N)C(=O)N[C@@H](CCC(N)=O)C(=O)N[C@@H](Cc1ccccc1)C(=O)N[C@@H](CCCCN)C(=O)N[C@H](C(=O)N[C@H](C(=O)N[C@H](C(=O)O)[C@@H](C)O)C(C)C)C(C)C,1.08,0.945
NC[C@@H]1O[C@H](C23CC4CC(CC(C4)C2)C3)Cc2c1ccc(O)c2O,0.66,0.765
CC1OC2(CS1)CN1CCC2CC1 (stereo not given),1.08,0.989
CC[C@H](C)[C@H](N)C(=O)O,0.96,0.942
C=CC(=O)Nc1cccc(Oc2nc(Nc3ccc(N4CCN(C)CC4)cc3)ncc2Cl)c1,1.09,1.05
C[C@@](Cc1ccc(O)c(O)c1)(NN)C(=O)O,1.03,0.949
CCOc1nc2cccc(C(=O)O)c2n1Cc1ccc(-c2ccccc2-c2nnn[nH]2)cc1,0.879,0.756

Structure (SMILES),PER2::LUC luminescence (time after treatment 24 h),PER2::LUC luminescence (time after treatment 30 h)
O=c1[nH]cnc2nc[nH]c12,1.01,0.986
O=C(Nc1cccnc1)c1cc(-c2ccnc(F)c2)ccc1OCc1ccccc1,0.633,0.811
O=C(Nc1cccc(NC(=O)c2cccc(O)c2O)c1)c1cccc(O)c1O,0.916,1.34
O=C(O)/C=C/C(O)c1ccc(Cl)cc1 (stereo not given),0.988,1.16
C[C@]12CCC(=O)C=C1CC[C@@H]1[C@@H]2CC[C@@]2(C)[C@H]1CC[C@]2(O)C(=O)CO,0.614 and 0.571,0.803 and 0.71
COC(=O)C1=C(C)NC(C)=C(C(=O)OC(C)(C)CN(C)CCC(c2ccccc2)c2ccccc2)C1c1cccc([N+](=O)[O-])c1 (stereo not given),1.14 and 0.832,1.25 and 0.965
COc1ccccc1N1CCN(CCCNc2c(C)c(=O)n(C)c(=O)n2C)CC1,0.888,1.03
O=C1CC[C@@H](C(=O)N2CSC[C@H]2C(=O)O)N1,0.6,1.01
c1ccc(-c2ccc(C(c3ccccc3)n3ccnc3)cc2)cc1 (stereo not given),1.45,1.32
Oc1c(Cl)cc(Cl)c2cccnc12,1.02 and 1.17,0.763 and 1.04
COc1ccc2cc1Oc1ccc(cc1)C[C@H]1c3cc(c(OC)cc3CCN1C)Oc1c(OC)c(OC)c(OC)c3c1[C@H](C2)N(C)CC3,0.81,0.85
COc1cc2ncnc(Nc3cccc(Br)c3)c2cc1OC,0.863 and 0.79 and 0.783,0.772 and 0.745 and 0.656
CN(C)CCC(c1ccc(Br)cc1)c1ccccn1 (stereo not given),0.784 and 0.446,0.719 and 0.735
COc1ccc(Cl)cc1NC(=O)Nc1cc(C)nc2ccccc12,0.757,0.791
COc1cc(Nc2c(C#N)cnc3cc(OCCCN4CCN(C)CC4)c(OC)cc23)c(Cl)cc1Cl,0.21,0.253
CCCCCCCCCC(=O)N[C@@H](Cc1c[nH]c2ccccc12)C(=O)N[C@H](CC(N)=O)C(=O)N[C@@H](CC(=O)O)C(=O)N[C@@H]1C(=O)NCC(=O)N[C@@H](CCCN)C(=O)N[C@@H](CC(=O)O)C(=O)N[C@H](C)C(=O)N[C@@H](CC(=O)O)C(=O)NCC(=O)N[C@H](CO)C(=O)N[C@@H]([C@H](C)CC(=O)O)C(=O)N[C@@H](CC(=O)c2ccccc2N)C(=O)O[C@@H]1C,1.18,1.21
CC(C)=CC(=O)CCC(=O)N1CCN(Cc2cc3nc(-c4cccc5[nH]ncc45)nc(N4CCOCC4)c3s2)CC1,0.459,0.371
CC(=O)OC[C@H]1O[C@@H]([S-])[C@H](OC(C)=O)[C@@H](OC(C)=O)[C@@H]1OC(C)=O.CCP(CC)CC.[Au+],0.98,0.973
CCC1(c2ccccc2)C(=O)NCNC1=O,1.02,0.925
COc1cc(-c2ccc(/N=N/c3ccc4c(S(=O)(=O)O)cc(S(=O)(=O)O)c(N)c4c3O)c(OC)c2)ccc1/N=N/c1ccc2c(S(=O)(=O)O)cc(S(=O)(=O)O)c(N)c2c1O,1.05,0.978
CN(CCCNC(=O)c1ccc2nc3c(c(Cl)c2c1)CCCC3)Cc1ccccc1,0.848,0.958
N#Cc1ccc2c(c1)N(CCCN1CCC(O)CC1)c1ccccc1S2,0.876,0.828
CCCCc1oc2ccc(NS(C)(=O)=O)cc2c1C(=O)c1ccc(OCCCN(CCCC)CCCC)cc1,0.716 and 0.408,0.818 and 0.551
Cc1noc(-c2ccc(-c3ccc(CC(=O)O)cc3)cc2)c1NC(=O)OC(C)c1ccccc1Cl (stereo not given),1.1,1.12
CNCCc1cnc(CCC(c2ccccc2)c2ccccc2)[nH]1,0.778,0.595

Structure (SMILES),PER2::LUC luminescence (time after treatment 24 h),PER2::LUC luminescence (time after treatment 30 h)
CCN1CCN(Cc2ccc(NC(=O)Nc3ccc(Oc4cc(NC)ncn4)cc3)cc2C(F)(F)F)CC1,0.107,0.14
CCCCCCCCNc1cc(=O)[nH]c(=O)[nH]1,0.969,1.01
NC(Cn1ccc(=O)c(O)c1)C(=O)O (stereo not given),0.928,0.906
Cc1onc(-c2ccccc2)c1C(=O)N1CCN(c2ccc([N+](=O)[O-])cc2Cl)CC1,0.896,1.04
C=CC(=O)Nc1cccc(Sc2nc(Nc3ccc(N4CCN(C)CC4)cc3)ncc2Cl)c1,0.273,0.305
CC(C)NCC(O)COc1ccc(CC(N)=O)cc1 (stereo not given),1.26,1.06
Oc1cc2c(cc1O)C(c1ccccc1)CNCC2 (stereo not given),0.922,0.846
Cn1c(=O)c2c(ncn2CC2OCCO2)n(C)c1=O,1.15,1.14
COc1ccc2cc1Oc1ccc(cc1)C[C@@H]1c3cc(c(OC)cc3CCN1C)Oc1c(OC)c(OC)cc3c1[C@H](C2)N(C)CC3,0.674,0.713
CC(=O)N(CC(O)CO)c1c(I)c(C(=O)NCCO)c(I)c(C(=O)NCC(O)CO)c1I (stereo not given),0.978,0.842
CN1CCN(CC(=O)N2c3ccccc3C(=O)Nc3cccnc32)CC1,1.05 and 1.11,1.03 and 1.1
Cc1ccc([C@@H]2O[C@H](CO)[C@@H](O)[C@H](O)[C@H]2O)cc1Cc1ccc(-c2ccc(F)cc2)s1,0.966 and 1.09,1.05 and 1.06
CC(C)[C@@H](C)[C@@H](O)[C@H](O)[C@@H](C)[C@H]1CC[C@H]2[C@@H]3COC(=O)[C@H]4C[C@H](O)[C@H](O)C[C@]4(C)[C@H]3CC[C@]12C,0.893,0.889
CC(C)(C)c1cc(C(C)(C)C)c(NC(=O)c2c[nH]c3ccccc3c2=O)cc1O,1 and 0.883,1.03 and 0.962
O=C1c2c(O)cc(O)cc2O[C@H](c2ccc(O)c(O)c2)[C@H]1O (racemic),1.19 and 1.04,0.894 and 0.975
CC(C)NC[C@@H](C(=O)N1CCN(c2ncnc3c2[C@H](C)C[C@H]3O)CC1)c1ccc(Cl)cc1,0.633,0.642
COC(=O)Nc1nc2cc(Sc3ccccc3)ccc2[nH]1,0.804,0.97
CC(=O)N(CC(O)CO)c1c(I)c(C(=O)NCC(O)CO)c(I)c(C(=O)NCC(O)CO)c1I (stereo not given),0.697,0.785
CCCc1cc(C)[nH]c(=O)c1CNC(=O)c1cc(-c2ccnc(N3CCN(C)CC3)c2)cc2c1cnn2C(C)C,1.06,1.06
CCc1cnc(N2CCC(c3nc(COc4ccc(-n5cnnn5)cc4)cs3)CC2)nc1,0.866,0.889
NC[C@H](O)c1ccc(O)c(O)c1,1.07,0.948 and 1.09
CCN(CC)CCNC(=O)c1ccc(N)cc1,1.11,1.27
CCCCCCOc1ccccc1C(N)=O,1.33,1.53
c1ccc2c(c1)CC(N1CCN(c3cccc4c3OCCO4)CC1)C2,1.06,1.11
O=C(Oc1cc(O)cc2c1C[C@@H](OC(=O)c1cc(O)c(O)c(O)c1)[C@@H](c1cc(O)c(O)c(O)c1)O2)c1cc(O)c(O)c(O)c1,1.12,0.856

# Reference: the supplement of paper PMC9334596
